Source: patent US20110044995A1 (KUMAMOTO UNIVERSITY, published 2011)

Experiments:
Assay in all cases: cell-based or functional assay
[1] = biological target: envelope of HIV-2 strain EHO (HIV-2 strain EHO); parameters: unit not given beside the values
[2] = biological target: envelope of HIV-1 clinically isolated strain TR43; parameters: unit not given beside the values
[3] = biological target: envelope of HIV-1 strain BaL (HIV-1 strain BaL); parameters: unit not given beside the values
[4] = biological target: envelope of HIV-1 clinically isolated strain kKGO; parameters: unit not given beside the values
[5] = biological target: envelope of HIV-1 clinically isolated strain YKI; parameters: unit not given beside the values
[6] = biological target: envelope of HIV-1 strain JR-FL (JRFLwt), on virus (HIV-1 strain JR-FL); parameters: unit not given beside the values
[7] = biological target: envelope of HIV-1 clinically isolated strain MIS; parameters: unit not given beside the values
[8] = biological target: envelope of HIV-1 clinically isolated strain YIS; parameters: unit not given beside the values
[9] = biological target: envelope of HIV-1 clinically isolated strain MTA; parameters: unit not given beside the values
[10] = biological target: envelope of HIV-1 clinically isolated strain KMT; parameters: unit not given beside the values
[11] = biological target: envelope of HIV-1 clinically isolated strain MOKW; parameters: unit not given beside the values
[12] = biological target: envelope of standard panel pseudotyped virus SVPB6 (HIV-1 subtype B)
[13] = biological target: envelope of standard panel pseudotyped virus SVPB13 (HIV-1 subtype B)
[14] = biological target: envelope of standard panel pseudotyped virus SVPB15 (HIV-1 subtype B)
[15] = biological target: envelope of standard panel pseudotyped virus SVPB5 (HIV-1 subtype B)
[16] = biological target: envelope of standard panel pseudotyped virus SVPB14 (HIV-1 subtype B)
[17] = biological target: envelope of standard panel pseudotyped virus SVPB17 (HIV-1 subtype B)
[18] = biological target: envelope of standard panel pseudotyped virus SVPB8 (HIV-1 subtype B)
[19] = biological target: envelope of standard panel pseudotyped virus SVPB12 (HIV-1 subtype B)
[20] = biological target: envelope of standard panel pseudotyped virus SVPB11 (HIV-1 subtype B)
[21] = biological target: envelope of standard panel pseudotyped virus SVPB18 (HIV-1 subtype B)
[22] = biological target: envelope of standard panel pseudotyped virus SVPB16 (HIV-1 subtype B)

B1: 49G2 (antibody, IgG1, V domains shown)
VH: [letters of about 100 residues omitted]GPIAAATHAFDIWGQGTMVTVSS
VL: QSVLTQPPSASGTPGQRVTISCSGSGSNIGSNTVNWYQQFPGTAPKLLIYNNNQRPSGVPDRFSGSKSGTSASLAISGLQSADEADYYCATWDDSLDGWVFGGGTKLTVLG
- IC50, neutralizing activity (MTT assay) [1]: > 50
- IC50, neutralizing activity (MTT assay) [2]: > 50
- IC50, neutralizing activity (MTT assay) [3]: > 50
- IC50, neutralizing activity (MTT assay) [4]: 9.6
- IC50, neutralizing activity (MTT assay) [5]: 1
- IC50, neutralizing activity (MTT assay) [6]: 23
- IC50, neutralizing activity (MTT assay) [7]: 0.25
- IC50, neutralizing activity (MTT assay) [8]: 1.8
- IC50, neutralizing activity (MTT assay) [9]: 0.9
- IC50, neutralizing activity (MTT assay) [10]: > 50
- IC50, neutralizing activity (MTT assay) [11]: 2.2
- IC50 in TZM-bl cells [12]: > 50 µg/mL
- IC50 in TZM-bl cells [13]: > 50 µg/mL
- IC50 in TZM-bl cells [14]: > 50 µg/mL
- IC50 in TZM-bl cells [15]: 2.1 µg/mL
- IC50 in TZM-bl cells [16]: > 50 µg/mL
- IC50 in TZM-bl cells [17]: > 50 µg/mL
- IC50 in TZM-bl cells [18]: > 50 µg/mL
- IC50 in TZM-bl cells [19]: 7.8 µg/mL
- IC50 in TZM-bl cells [20]: > 50 µg/mL
- IC50 in TZM-bl cells [21]: > 50 µg/mL
- IC50 in TZM-bl cells [22]: 7.8 µg/mL
